Laboratory results reported in PubChem BioAssay AID488969 (Vanderbilt High Throughput Screening Facility, 2010).
Over roughly 110,000 compounds, “z-score” has its median near -0.1; the highest 2% begin near 2. The list shows a part of the results. The source made the active and inactive calls.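 The calls were made as follows: active = z-score in the third read window above 3 or below -3; inactive = the rest.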

What follows are compounds tested against Metabotropic glutamate receptor 8 (Rattus norvegicus) (UniProt P70579) (assay: rat mGluR8 modulators via GIRK flux, primary screen, cell-based, thallium flux, HTS (AID 488969)). Settings: HEK293 rat mGluR8, GIRK (G protein-gated inwardly rectifying potassium channel) thallium flux, FluoZin2; at 10 µM; stronger effect = higher value; submaximal glutamate (EC20) added with thallium.
UniProt P70579, sequence (P70579 whole entry, looked up): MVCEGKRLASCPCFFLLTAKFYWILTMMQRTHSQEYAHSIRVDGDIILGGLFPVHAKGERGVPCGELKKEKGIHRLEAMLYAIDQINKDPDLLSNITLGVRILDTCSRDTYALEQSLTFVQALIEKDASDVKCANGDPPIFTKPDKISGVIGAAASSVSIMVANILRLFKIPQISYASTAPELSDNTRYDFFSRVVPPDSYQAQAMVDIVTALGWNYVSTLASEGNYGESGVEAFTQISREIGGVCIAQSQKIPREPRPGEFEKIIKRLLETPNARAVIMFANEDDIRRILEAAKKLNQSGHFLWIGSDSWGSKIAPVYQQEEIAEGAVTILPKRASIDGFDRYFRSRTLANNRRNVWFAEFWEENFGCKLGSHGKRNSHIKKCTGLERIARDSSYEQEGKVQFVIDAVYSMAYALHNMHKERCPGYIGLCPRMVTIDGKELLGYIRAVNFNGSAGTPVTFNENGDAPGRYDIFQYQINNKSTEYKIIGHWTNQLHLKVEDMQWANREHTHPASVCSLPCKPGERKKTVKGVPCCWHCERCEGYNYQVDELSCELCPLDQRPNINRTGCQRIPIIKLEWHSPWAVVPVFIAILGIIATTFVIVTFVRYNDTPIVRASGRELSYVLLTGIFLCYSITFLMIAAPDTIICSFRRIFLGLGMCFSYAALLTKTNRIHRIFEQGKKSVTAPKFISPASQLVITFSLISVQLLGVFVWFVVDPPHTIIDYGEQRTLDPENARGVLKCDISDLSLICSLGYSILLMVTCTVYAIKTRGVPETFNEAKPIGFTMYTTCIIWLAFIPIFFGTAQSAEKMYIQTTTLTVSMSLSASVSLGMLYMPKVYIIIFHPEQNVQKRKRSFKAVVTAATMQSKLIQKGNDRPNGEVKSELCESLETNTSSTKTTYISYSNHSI

SMILES	z-score
CC(C)Nc1nc(NC(C)C)nc(C(N)=O)n1	-0.413
CC(=O)N1CCN(C(=S)c2ccc(Cl)cc2)CC1	-0.082
CCC(C)(C)n1nnnc1C(c1ccc2ncccc2c1)N1CCN2CCCC2C1 (stereo not drawn)	-0.475
Cc1[nH]n(-c2ccc(Cl)cc2)c(=O)c1/C=N/n1c(C)nc2ccccc2c1=O	0.316
Cc1ccc(C)c(-n2c(CNc3ccc(F)cc3)nnc2SCC(N)=O)c1	-0.64
COc1ccccc1OC(=O)c1ccc(S(=O)(=O)N(C)C)cc1	-0.379
CN(CC(=O)Nc1ccc(Cl)cc1)c1ccc(S(=O)(=O)N2CCCCC2)cc1[N+](=O)[O-]	-0.23
Cc1cc(C(=O)Nc2ncn[nH]2)ccc1[N+](=O)[O-]	0.428
COc1ccc(-c2cc(C#N)nc(N3CCNCC3)n2)cc1	2.07
CCCCC(=O)N/N=C(\C)CC(=O)Nc1cc(Cl)ccc1OC	-0.0637
Oc1ccc(C2=NNC(=NCc3ccc4c(c3)OCO4)SC2)c(O)c1	0.542
Cc1cc(Nc2ccccc2C(=O)O)nc2nc3ccccc3c(=O)n12	-0.163
COc1cccc(/C=C/C(=O)c2ccc(C)c([N+](=O)[O-])c2)c1	-0.0159
CC(C)CC(=O)Nc1ccc(Oc2ccc(NC(=O)CC(C)C)cc2)cc1	0.129
COc1cc(S(=O)(=O)n2nnc3ccccc32)c(OC)cc1Cl	1.77
Cc1nn(Cc2ccccc2)c2c1C(c1ccc(Cl)cc1)C(C#N)=C(N)O2 (stereo not drawn)	-0.00625
CCOC(=O)CSc1nnc(-c2ccccc2OC)o1	active: -3.7
COc1cccc(-n2nnc3c(=O)n(Cc4c(F)cccc4Cl)cnc32)c1	-0.221
C[N+]1(CC(=O)Nc2ccc(F)cc2)CCN(C(=O)c2ccco2)CC1	-0.00484
O=C(COC(=O)c1cccs1)NCCN1C(=O)CSC1=O	0.00636
N#CC1=C(N)C2=CCCC[C@H]2[C@H](c2ccc(Br)cc2)C1(C#N)C#N	-0.535
CCN(c1ccc(NC(=O)COC(=O)CCc2nc3ccccc3n2-c2ccccc2)cc1)C(C)C	-0.153
O=C(COC(=O)CCCOc1ccc(Cl)cc1Cl)NCc1ccccc1	-0.469
CC(=O)NCCN=Cc1sc2ccccc2c1O	-0.126

SMILES	z-score
COc1cc(C(=O)N/N=C/c2ccsc2C)cc(OC)c1OC	0.0664
c1ccc(OCc2nc3ccccc3s2)cc1	0.0173
Cc1nc(-c2ccc(NC(=O)C3CCCCC3)cc2)cs1	-0.0739
COC(=O)c1ccc(NC(=O)CNC(=O)C2CCCCC2)c(C)c1	0.438
N#C/C(=C\c1cn(Cc2ccccc2C#N)c2ccccc12)C(=O)NCc1cccs1	-0.0115
COc1ccccc1CN1C(=O)CN(C2CCCCCC2)C(=O)C1c1ccc(F)cc1 (stereo not drawn)	-0.515
CCCN(CCC)C(=S)NC(=O)c1ccc(-c2ccccc2)cc1	-0.959
CCC(C)NC(=O)CCc1nc2ccccc2n1-c1ccccc1 (stereo not drawn)	-0.283
Cc1ccc(OCCOCCNC(C)C)c(Br)c1	0.634
C=CCc1c(C)nc(-c2ccccc2)nc1N/N=C/c1ccccc1	-0.265
CCOC(=O)c1ccccc1NC(=O)/C(C)=C/C(=O)O	-0.283
CC1CCCN(C(=O)CSc2cnc3ccccc3n2)C1 (stereo not drawn)	-1.09
COc1ccc(-n2c(C)nc(=O)c(-c3ccccc3)c2C)cc1	-0.292
CN1CCN(C(=O)CN(Cc2ccc(Cl)cc2)S(C)(=O)=O)CC1	0.244
Cn1c(-c2sc3cc(C(F)(F)F)cnc3c2-c2cccnc2)n[nH]c1=S	-0.0472
CCc1nnc(N/N=C/c2ccccc2Cl)n1N	-0.109
O=C(OCC#CCSc1nc2ccccc2o1)c1ccco1	-0.863
COc1cc(-n2ccnc2SC)c(Cl)cc1Cl	-0.645
Cc1ccc(-c2nnn(CC(=O)N(CC(=O)NC(C)C)c3cnc4ccccc4c3)n2)o1	-0.185
O=C1CCC(C(=O)Nc2cccc3ccccc23)N1 (stereo not drawn)	0.0808
CC(=O)OC12CC3CC(C1)C(=NO)C(C3)C2	-0.268
CNC(=O)c1cc2c(ccc3ccccc32)oc1=N	-0.246
Cc1ccccc1/C(N)=N/OC(=O)N1c2ccccc2Sc2ccccc21	-0.481
O=C(NNC(=O)c1cc([N+](=O)[O-])ccc1Cl)c1cccs1	-0.106

SMILES	z-score
CSc1nc(Oc2cccc(C(F)(F)F)c2)cc(C(F)(F)F)n1	-0.19
Cc1ccc(S(=O)(=O)Oc2ccccc2/C=N/NC(N)=S)cc1	-0.566
CC(NC(=O)CSc1cccc(C(F)(F)F)c1)c1ccccc1 (stereo not drawn)	-0.0289
O=C(Nc1cccn(Cc2c(Cl)cccc2Cl)c1=O)c1c(Cl)cccc1Cl	-0.126
COc1cc(C(c2nnnn2C2CCCC2)N2CCN(C)CC2)cc(OC)c1OC (stereo not drawn)	-0.22
CCOc1ccccc1NC(=O)/C=C/C(N)=O	-0.0696
CC(=O)C1=C(C)OC(N)=C(C#N)C1c1ccncc1 (stereo not drawn)	-0.0229
Cc1nn(C)cc1CNC(=O)c1ccc(F)cc1	-0.242
O=C(COc1ccc(Cl)cc1Cl)OCn1nnc2ccccc2c1=O	-0.36
Cc1cccc(NC(=O)c2cccc3c2C(=O)c2ccccc2-3)c1	0.223
Cc1ccc(SCCNC(=O)/C=C/c2ccccc2Cl)cc1	-0.258
O=C(CCc1ccccc1)Nc1c(F)c(F)c(F)c(F)c1F	-0.259
CCC(NC(=O)NCc1cccnc1)(C(F)(F)F)C(F)(F)F	0.00489
CCn1c(COc2cccc(C)c2)nnc1SCC(=O)Nc1cccc(C(=O)O)c1	-0.489
COc1cc(OC)c(C2=NOC(C(=O)N3CCCc4ccccc43)C2)cc1Cl (stereo not drawn)	-0.168
COC(=O)CSc1cc(C(F)(F)F)nc(-c2ccccn2)n1	-0.0792
CN(Cc1ccccc1)C(=O)c1cnc2n(c1=O)CCS2	0.863
C(=C\c1nc(-c2ccccc2)no1)/c1ccccc1	0.096
CC(C)CCN1C(=O)c2ccc(C(=O)NCC3CCCO3)cc2C1=O (stereo not drawn)	0.744
COc1ccc(S(=O)(=O)Nc2ccc3c(c2)OCO3)cc1	-0.0161
CCOC(=O)Nc1sc(=S)n(C)c1C	-0.207
CC1(c2ccccc2)NC(=O)N(CC(=O)N2CCOCC2)C1=O (stereo not drawn)	0.596
Cc1ccsc1/C=C1\CCc2ccccc2C1=O	-1.25
Cc1cccc(NC(=O)CCC(=O)N/N=C/c2cc([N+](=O)[O-])ccc2O)c1	-0.448

SMILES	z-score
FC(F)(F)c1ccccc1Nc1nccs1	-0.57
O=C1C2CCCN2C(c2ccc(Cl)cc2)N1c1nccs1 (stereo not drawn)	-0.127
CCn1c2ccccc2c2cc(NS(=O)(=O)c3ccccc3C)ccc21	-0.0727
COc1cc(/C=N/NC(=O)CCc2c(C)n[nH]c2C)ccc1O	-0.233
CCc1ccc(NC(=O)CSc2nnc(SCC(=O)Nc3ccc(CC)cc3)n2N)cc1	-0.053
CC(C)NS(=O)(=O)c1ccc(NC(=O)C2CCCCC2)cc1	0.919
CCN(CC)S(=O)(=O)c1cccc(NC(=O)COC(=O)/C=C/c2ccco2)c1	0.436
CC(NC(=O)c1ccco1)C(c1cccs1)N1CCOCC1 (stereo not drawn)	0.165
O=C1C2C3C=CC(C3)C2C(=O)N1c1nc2ccccc2s1 (stereo not drawn)	-0.239
CC(=O)Nc1sc(C)c(C)c1C(=O)OC1CCOC1=O (stereo not drawn)	1.73
O=C(Nc1nc2ccccc2[nH]1)c1cccc(S(=O)(=O)N2CCOCC2)c1	0.109
CCOc1ccc(C2N(c3ccc(F)cc3)C(=O)C3CCCN32)cc1 (stereo not drawn)	-0.11
NC(=O)C1CCCN(C(=S)Nc2cccc3ccccc23)C1 (stereo not drawn)	-0.116
O=c1c(Cl)c(NCc2ccc(F)cc2Cl)cnn1C12CC3CC(CC(C3)C1)C2	-0.193
CCCN1C(=O)/C(=C/c2ccc(C)s2)NC1=S	active: 13.9
Cc1onc(-c2c(F)cccc2Cl)c1C(=O)N1C=CC(C(F)(F)Cl)=NCC1	-0.129
CCC(=O)Nc1ccccc1Oc1ccccc1	0.538
Cc1ccccc1NC(=S)NNC(=O)c1ccoc1C	-0.0215
O=C(CC1SCCNC1=O)Nc1cc(Cl)cc(Cl)c1 (stereo not drawn)	-0.399
CCN(CC)CCNC(=O)c1ccc2c(=O)n(CCc3ccccc3)c(=O)[nH]c2c1	0.276
CC/C(=N\NC(=O)c1ccc(-c2ccccc2)cc1)C12CC3CC(CC(C3)C1)C2	0.0832
O=C(COC(=O)CCSc1ccccc1)Nc1ccc(F)cc1Cl	-0.378
CCC1(C)Cc2c(sc3nn[nH]c(=O)c23)CO1 (stereo not drawn)	-0.625
CCOc1ccc(C2/C(=C(/O)c3ccc(F)cc3)C(=O)C(=O)N2CCCN(C)C)cc1 (stereo not drawn)	0.714

SMILES	z-score
CC(=O)N1CCn2c3ccc(C)cc3c3cccc1c32	-0.12
O=[N+]([O-])c1ccc(N=Nc2ccc(O)cc2O)cc1	-0.521
CCC(C)NC(=O)COc1ccc(Br)c(C)c1 (stereo not drawn)	0.482
COc1ccccc1N/C(N)=N/c1nc(CSc2ccc(C)cc2)cc(=O)[nH]1	-0.0894
Cc1cc2cc(C)c3nnc(SCC(=O)NCc4ccco4)n3c2cc1C	-0.212
CCCCCCCC(=O)N/N=C/c1ccc(Br)cc1	-0.319
COCc1nn2c(N)c(C#N)cnc2c1-c1ccccc1	0.664
O=C(COC(=O)c1cnccn1)c1ccccc1	-0.276
N#Cc1ccc(OCc2nnc(SCC(=O)N3CCCc4ccccc43)n2-c2ccccc2)cc1	-0.172
COc1ccccc1NC(=O)CCCC(=O)OCC(F)(F)C(F)F	0.169
O=C(NCCN1CCOCC1)c1ccccc1-c1ccccc1	0.163
c1ccc2c(CNn3cnnc3)cccc2c1	-0.167
O=C(O)c1ccc(N/N=C/c2ccc3ncccc3c2)cc1	0.799
O=S(=O)(Nc1cnc2ccccc2c1)N1CCCCCC1	-0.166
O=C(Nc1cccnc1)c1cc(-c2ccccc2)on1	-0.466
CSc1nnc(NC(=O)c2cc3ccccc3oc2=O)s1	0.609
COc1cc(N)c(Cl)cc1NC(=O)c1ccccc1	0.363
Nc1ccccc1OCCOCCOc1ccccc1N	-0.0436
Cc1ccccc1NC(=O)c1ccc(S(=O)(=O)N(C)C)cc1	0.114
COn1c(-c2ccccc2)nc2c1CCc1c-2no[n+]1[O-]	-0.14
CCOc1ccccc1OCCCC(=O)OCC(=O)Nc1cccc(Cl)c1	0.132
c1ccc2c(c1)nc(N1CCOCC1)c1nncn12	-0.183
